Reference: the GPR68 mutational scans of Howard et al. (2025)

B1: GPR68, Q15743 (parent)
chain: MGNITADNSSMSCTIDHTIHQTLAPVVYVTVLVVGFPANCLSLYFGYLQIKARNELGVYLCNLTVADLFYICSLPFWLQYVLQHDNWSHGDLSCQVCGILLYENIYISVGFLCCISVDRYLAVAHPFRFHQFRTLKAAVGVSVVIWAKELLTSIYFLMHEEVIEDENQHRVCFEHYPIQAWQRAINYYRFLVGFLFPICLLLASYQGILRAVRRSHGTQKSRKDQIQRLVLSTVVIFLACFLPYHVLLLVRSVWEASCDFAKGVFNAYHFSLLLTSFNCVADPVLYCFVSETTHRDLARLRGACLAFLTCSRTGRAREAYPLGAPEASGKSGAQGEEPELLTKLHPAFQTPNSPGSGGFPTGRLA

What was measured:
[1] = variants of: B1; assay: cAMP reporter score (Enrich2 score, wild type = 0); higher = more signal; HEK293T, FACS bins
[2] = variants of: B1; assay: surface expression score (Enrich2 score, wild type = 0); higher = more signal; HEK293T, FACS bins

Row | Variant | cAMP reporter score ([1]; pH 5.5) | cAMP reporter score ([1]; pH 6) | cAMP reporter score ([1]; pH 6, modulator: ogerin) | cAMP reporter score ([1]; pH 6.5, modulator: ogerin) | surface expression score [2]
1 | MGNITADNSSMSCTIDHTIHQTLAPVVYVTVLVVGFPANCLSLYFGYLQIKARNELGVYLCNLTVADLFYICSLPFWLQYVLQHDNWSHGDLSCQVCGILLYENIYISVGFLCCISVDRYLAVPHPFRFHQFRTLKAAVGVSVVIWAKELLTSIYFLMHEEVIEDENQHRVCFEHYPIQAWQRAINYYRFLVGFLFPICLLLASYQGILRAVRRSHGTQKSRKDQIQRLVLSTVVIFLACFLPYHVLLLVRSVWEASCDFAKGVFNAYHFSLLLTSFNCVADPVLYCFVSETTHRDLARLRGACLAFLTCSRTGRAREAYPLGAPEASGKSGAQGEEPELLTKLHPAFQTPNSPGSGGFPTGRLA [A124P] | -0.906 | -0.117 | -1.35 | -0.7 | -1.2
2 | MGNITADNSSMSCTIDHTIHQTLAPVVYVTVLVVGFPANCLSLYFGYLQIKARNELGVYLCNLTVADLFYICSLPFWLQYVLQHDNWSHGDLSCQVCGILLYENIYISVGFLCCISVDRYLAVNHPFRFHQFRTLKAAVGVSVVIWAKELLTSIYFLMHEEVIEDENQHRVCFEHYPIQAWQRAINYYRFLVGFLFPICLLLASYQGILRAVRRSHGTQKSRKDQIQRLVLSTVVIFLACFLPYHVLLLVRSVWEASCDFAKGVFNAYHFSLLLTSFNCVADPVLYCFVSETTHRDLARLRGACLAFLTCSRTGRAREAYPLGAPEASGKSGAQGEEPELLTKLHPAFQTPNSPGSGGFPTGRLA [A124N] | -0.482 | -0.684 | -0.801 | -1.7 | -1.5
3 | MGNITADNSSMSCTIDHTIHQTLAPVVYVTVLVVGFPANCLSLYFGYLQIKARNELGVYLCNLTVADLFYICSLPFWLQYVLQHDNWSHGDLSCQVCGILLYENIYISVGFLCCISVDRYLAVQHPFRFHQFRTLKAAVGVSVVIWAKELLTSIYFLMHEEVIEDENQHRVCFEHYPIQAWQRAINYYRFLVGFLFPICLLLASYQGILRAVRRSHGTQKSRKDQIQRLVLSTVVIFLACFLPYHVLLLVRSVWEASCDFAKGVFNAYHFSLLLTSFNCVADPVLYCFVSETTHRDLARLRGACLAFLTCSRTGRAREAYPLGAPEASGKSGAQGEEPELLTKLHPAFQTPNSPGSGGFPTGRLA [A124Q] | -0.403 | – | -3.19 | -3.64 | -1.44
4 | MGNITADNSSMSCTIDHTIHQTLAPVVYVTVLVVGFPANCLSLYFGYLQIKARNELGVYLCNLTVADLFYICSLPFWLQYVLQHDNWSHGDLSCQVCGILLYENIYISVGFLCCISVDRYLAVRHPFRFHQFRTLKAAVGVSVVIWAKELLTSIYFLMHEEVIEDENQHRVCFEHYPIQAWQRAINYYRFLVGFLFPICLLLASYQGILRAVRRSHGTQKSRKDQIQRLVLSTVVIFLACFLPYHVLLLVRSVWEASCDFAKGVFNAYHFSLLLTSFNCVADPVLYCFVSETTHRDLARLRGACLAFLTCSRTGRAREAYPLGAPEASGKSGAQGEEPELLTKLHPAFQTPNSPGSGGFPTGRLA [A124R] | -0.06 | -0.687 | -0.577 | -0.077 | -0.996

The least precise scores are not listed. Two further conditions of the source, in which the scores hardly spread, are not listed. Read del as a deletion of the residues named and ins as an insertion between two positions. For some of these results: How much ogerin was present is not stated here.
